# Measurements from article PMC6919601, “Identification of Plasmodium dipeptidyl aminopeptidase allosteric inhibitors by high throughput screening” (PLoS ONE, 2019).
# Screen size: about 110,000 compounds; about 230 (0.21%) showed an effect of 50% or more. The list shows a part of the results.
# Biological target: DPAP1 (Plasmodium falciparum, UniProt Q8IIJ9)
# Assay: primary screen, percent inhibition; read by cleavage of a fluorogenic dipeptide substrate; higher = more effect of the substance
# Parameters: species or system P. falciparum D10 trophozoite lysates; single well
# 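Further: 30 min substrate incubation versus DMSO and 10 µM JCP410 controls.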
# DPAP1, sequence (Q8IIJ9 whole entry, looked up): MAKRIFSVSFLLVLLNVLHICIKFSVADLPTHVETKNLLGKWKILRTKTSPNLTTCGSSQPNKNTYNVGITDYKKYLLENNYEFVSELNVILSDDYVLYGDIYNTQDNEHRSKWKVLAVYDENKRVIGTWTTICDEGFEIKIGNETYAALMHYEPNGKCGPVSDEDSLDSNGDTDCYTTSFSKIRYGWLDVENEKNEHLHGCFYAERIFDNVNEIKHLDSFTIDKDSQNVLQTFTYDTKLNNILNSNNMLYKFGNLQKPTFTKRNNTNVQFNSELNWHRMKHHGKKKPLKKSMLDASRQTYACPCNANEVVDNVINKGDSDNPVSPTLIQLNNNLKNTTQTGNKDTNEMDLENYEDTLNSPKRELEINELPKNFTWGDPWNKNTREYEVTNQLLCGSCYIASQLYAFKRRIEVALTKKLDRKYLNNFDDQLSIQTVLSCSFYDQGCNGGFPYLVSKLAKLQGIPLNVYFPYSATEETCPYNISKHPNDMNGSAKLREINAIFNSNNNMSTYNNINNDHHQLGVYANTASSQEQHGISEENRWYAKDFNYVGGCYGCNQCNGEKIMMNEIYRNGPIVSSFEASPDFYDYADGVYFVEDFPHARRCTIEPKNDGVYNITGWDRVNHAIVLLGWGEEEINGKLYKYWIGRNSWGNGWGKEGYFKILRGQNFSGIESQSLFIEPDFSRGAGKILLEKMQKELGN
row,SMILES,% Inhibition @ 10 uM [%]
1,O=C(CCCc1nnc2n3nc(-c4ccccc4)nc3c3ccccc3n12)NCCCN1CCOCC1,-4.69
2,O=C(Nc1ccc(Cl)cc1C(=O)NCc1cccs1)c1ccc(Cl)cc1,0.528
3,C=CCOc1ccccc1CNc1ccc(C(=O)O)cc1,0.795
4,Cc1ccccc1C(=O)N1CCN(c2ccccn2)CC1,-0.386
5,Cc1ccc2c(c1)-c1onc(C(=O)NC3CCN(Cc4ccccc4)CC3)c1CO2,-7.84
6,COc1ccc2nc(Cl)c3nnnn3c2c1,-0.999
7,c1ccc2c(c1)CCN(Cc1ccoc1)C2,3.01
8,Clc1cccc(OCCOCCN2CCNCC2)c1Cl,6.15
9,CC(C)Cn1cc(NC(=O)N2CCC3(CC2)OCCO3)c2ccccc2c1=O,-0.884
10,COc1ccc(/C=c2\sc3nc(=O)c(Cc4ccccc4)nn3c2=O)c(OC)c1,0.222
11,CC(C)(C)NS(=O)(=O)NCCc1ccncc1,-1.91
12,Cc1ccc(CN(Cc2ccco2)C(=O)c2cccs2)cc1,-2.21
13,O=c1[nH]c(=O)n(Cc2ccco2)c2c1C(C(F)(F)F)(C(F)(F)F)NC(Cc1ccccc1)=N2,3.87
14,CC(C)OCCCNC(=O)C1CCCN(S(=O)(=O)N2CCOCC2)C1 (centres unmarked),2
15,CCC(=O)OC1(C#N)CC(C)N(C)CC1C (centres unmarked),-2.03
16,CCOc1ccc2nc(C)c(CN3CC4(C)CC3CC(C)(C)C4)c(O)c2c1 (centres unmarked),5.37
17,CCCCOc1ccc(/C=C/C2=CC(C)(C)NC(S)=N2)cc1OCC,-3.39
18,CCCCCOC(=O)C1=C(C)NC(=O)NC1c1ccc(Cl)cc1 (centres unmarked),2.78
19,CC(NS(=O)(=O)c1ccc2c(c1)Cc1cc(S(=O)(=O)NC(C)C(=O)O)ccc1-2)C(=O)O (centres unmarked),4.95
20,COc1cccc(C2CC(O)=C/C(=N/Cc3cccs3)C2)c1 (centres unmarked),2.57
21,Cc1cc(C)cc(NC(=O)CN(c2ccc(Br)cc2)S(C)(=O)=O)c1,0.324
22,OCCN1CCN(Cc2c3c(c(CN4CCN(CCO)CC4)c4c2CCC4)CCC3)CC1,-5.69
23,O=C(CSc1cn(CCNC(=O)c2cccs2)c2ccccc12)NC1CCCCC1,-2.4
24,CCCO/C(O)=C1\C(C)=NC2=C(C(=O)CC(c3ccccc3OC)C2)C1c1cccc(OC)c1OC (centres unmarked),2.25
25,CC(NC(=O)C1CCN(C(=O)c2cnn(-c3ccccc3)c2-n2cccc2)CC1)c1ccccc1 (centres unmarked),-3.35

row,SMILES,% Inhibition @ 10 uM [%]
1,Cc1ccc(C(=O)N2CCN(c3cccc(C)c3C)CC2)o1,2.48
2,CCC(O)c1nc2ccccc2n1CCOc1cc(C)ccc1C (centres unmarked),2.05
3,Cc1nn(CC(=O)NC(C)c2ccccc2)c(C)c1Cl (centres unmarked),-2.79
4,Cc1sc(-c2cc3ccc(O)cc3oc2=O)nc1-c1ccc(Cl)cc1,-3.83
5,CC(CNS(=O)(=O)c1ccc(-c2cc(C(F)(F)F)no2)s1)c1ccccc1 (centres unmarked),3.9
6,Cc1ccc(S(=O)(=O)NC2c3cccc4cccc(c34)C2Sc2nnc(N)s2)cc1 (centres unmarked),3.59
7,COc1ccc(CNC(=O)NCc2noc3ccc(C)cc23)cc1,-2.84
8,CCOC(=O)C1=C(C)N=c2s/c(=C\c3ccc(OC)cc3OC)c(=O)n2C1c1ccc(N(C)C)cc1 (centres unmarked),-3.44
9,Cc1nc2sccn2c(=O)c1S(=O)(=O)N1CC(=O)N(CCc2ccccc2)C(=O)C1,-1.97
10,CCCN(Cc1cc(Cl)ccc1[N+](=O)[O-])CC1CC1,1.08
11,Cc1ccc(-c2nnc3n2C2(CCCC2)Cc2ccccc2-3)cc1,-9.42
12,O=C1NCCc2c1[nH]c1ccc(OCc3ccccc3)cc21,-1.91
13,CC(NC(=O)c1ccccc1)c1cc2c(cc1Br)OCCO2 (centres unmarked),-5.34
14,COc1ccc(C(=O)/C=C2\NC(=O)NC2=O)cc1,-0.053
15,CC1=C(C#N)C(NC(=O)CCc2ccccc2)(C(F)(F)F)C(=O)N1 (centres unmarked),0.00626
16,N#CC1=C(SCC(N)=O)NC(=O)CC1c1ccccc1Cl (centres unmarked),17
17,N#CC1=C(N)OC2=C(C(=O)CCC2)C1c1ccsc1 (centres unmarked),-4.68
18,COc1ccc(S(=O)(=O)N(CC(=O)Nc2ccc(Cl)cc2)c2ccccc2)cc1,0.00477
19,O=C(NCC1CCCO1)Nc1cccc2ccccc12 (centres unmarked),2.64
20,C=CCOc1ccc(CNc2ccc(N3CCOCC3)c(Cl)c2)cc1,-3.23
21,CC(=O)c1ccc(NC(=O)Cn2c(-c3cncs3)nc3ccccc32)cc1,-4.12
22,O=S(=O)(c1ccc2[nH]c3c(c2c1)CCCC3)N1CCN(Cc2ccccc2)CC1,-8.25
23,O=C(Cn1ccc2cc(S(=O)(=O)N3CCCC3)ccc21)NCc1ccccc1F,4.96
24,COc1ccc(C(=O)NCC2(c3ccc(OC)c(OC)c3)CCCC2)cc1,-3.76
25,CSC[n+]1cc(C(=O)c2ccccc2)ccc1N,-0.99
